The other results are listed elsewhere or left out. The full chains were built here from the parent and the listed change. Inactive controls read about 0.05.
B1: TEV protease; numbered along this chain (parent)
chain: MGESLFKGPRDYNPISSSICHLTNESDGHTTSLYGIGFGPFIITNKHLFRRNNGTLVVQSLHGVFKVKDTTTLQQHLVDGRDMIIIRMPKDFPPFPQKLKFREPQREERICLVTTNFQTKSMSSMVSDTSCTFPSGDGIFWKHWIQTKDGQCGSPLVSTRDGFIVGIHSASNFTNTNNYFTSVPKNFMELLTNQEAQQWVSGWRLNADSVLWGGHKVFMVKPEEPFQPVKEATQL

Variants of: B1
Assay: raw area under fraction-flipped curve 0-4 h after induction (AUC4h, not background-subtracted), DNA-recorder readout of cleavage of the substrate (dimensionless); higher = more cleavage of the substrate by the protease variant
Settings: temperature: 34 °C; time window: 0-4 h after rhamnose induction
Description: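 In vivo DNA recorder in E. coli TOP10(DE3) ΔrhaA at 34 °C. Each TEVp single-site mutant (parent TEVp 0) is paired with a single-site variant of the 7-mer TEVs (canonical ENLYFQ|S). The substrate sits between flexible linkers in a Bxb1-sfGFP-TEVs-SsrA fusion, so cleavage stabilises Bxb1 and speeds flipping of a recombination array, read by NGS. The value is the raw area under the fraction-flipped curve over 0-4 h after rhamnose induction (AUC4h), with ≥20 reads per time point. It is not background-subtracted; inactive controls average about 0.047.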
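Note: Bxb1 expression induced with 0.2% (w/v) L-rhamnose at OD600 near 0.5, cultures sampled hourly, flipped fraction per protease–substrate barcode pair counted by paired-end Illumina sequencing.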

Variant | area with substrate ENLYFQA | area with substrate ENLYFQC | area with substrate ENLYFQD | area with substrate ENLYFQE | area with substrate ENLYFQF | area with substrate ENLYFQG | area with substrate ENLYFQH | area with substrate ENLYFQI | area with substrate ENLYFQM | area with substrate ENLYFQN | area with substrate ENLYFQP | area with substrate ENLYFQQ | area with substrate ENLYFQR | area with substrate ENLYFQS | area with substrate ENLYFQT | area with substrate ENLYFQV | area with substrate ENLYFQW | area with substrate ENLYFQY | area with substrate ENLYFQL | area with substrate ENLYFQK
MGESLFKGPRDYNPISSSICHLTNESDGHTTSLYGIGFGPFIITNKHLFRRNNGTLVVQSLHGVFKVKDTTTLQQHLVDGRDMIIIRMPKDFPPFPQKLKFREPQREERICLVTTNFQTKSMSSMVSDTSCTFPSGDGIFWKHWIQTKDGQCGSPLVSTRDGFIVGIHSASNFTNTNNYFTSVPKNFMELLTNQEAQQWVSGWRLNADSVLWGGHKVFMVKVEEPFQPVKEATQL [P222V] | 0.0946 | 0.108 | 0.0583 | 0.0725 | 0.0806 | 0.0871 | 0.079 | 0.0588 | 0.0749 | 0.0766 | 0.0619 | 0.0678 | 0.0639 | 0.0923 | 0.0618 | 0.0625 | 0.0419 | 0.0586 | – | –
MGESLFKGPRIYNPISSSICHLTNESDGHTTSLYGIGFGPFIITNKHLFRRNNGTLVVQSLHGVFKVKDTTTLQQHLVDGRDMIIIRMPKDFPPFPQKLKFREPQREERICLVTTNFQTKSMSSMVSDTSCTFPSGDGIFWKHWIQTKDGQCGSPLVSTRDGFIVGIHSASNFTNTNNYFTSVPKNFMELLTNQEAQQWVSGWRLNADSVLWGGHKVFMVKPEEPFQPVKEATQL [D11I] | 0.0968 | 0.0953 | – | – | – | 0.156 | 0.0861 | – | – | 0.0705 | – | – | 0.0666 | 0.0915 | – | 0.0729 | 0.0506 | 0.0943 | 0.0645 | –
MGESLFKGPRDYNPISSSICHLTNESDGHTTSLYGIGFGPFIITNKHLFRRNNGTLVVQSLHGVFKVKDTTTLQQHLVDGRDMIIIRMPKDFPPFPQKLKFREPQREERICLLTTNFQTKSMSSMVSDTSCTFPSGDGIFWKHWIQTKDGQCGSPLVSTRDGFIVGIHSASNFTNTNNYFTSVPKNFMELLTNQEAQQWVSGWRLNADSVLWGGHKVFMVKPEEPFQPVKEATQL [V113L] | 0.0976 | 0.109 | 0.0312 | – | 0.0796 | 0.119 | 0.0741 | 0.0594 | 0.08 | 0.0795 | – | – | 0.0608 | 0.102 | 0.0594 | 0.0576 | 0.0728 | 0.0532 | 0.0688 | 0.0524
MGESLFKGPRDYNPISSSICHLTNESDGHTTSLYGIGFGPFIITNKHLFRRNNGTLVVQSLHFVFKVKDTTTLQQHLVDGRDMIIIRMPKDFPPFPQKLKFREPQREERICLVTTNFQTKSMSSMVSDTSCTFPSGDGIFWKHWIQTKDGQCGSPLVSTRDGFIVGIHSASNFTNTNNYFTSVPKNFMELLTNQEAQQWVSGWRLNADSVLWGGHKVFMVKPEEPFQPVKEATQL [G63F] | 0.0832 | 0.0888 | 0.0733 | – | 0.0787 | 0.0842 | 0.0714 | 0.058 | 0.0898 | 0.0621 | 0.059 | 0.0682 | – | 0.0947 | – | 0.063 | – | – | 0.0702 | 0.0573
MGESLFKGPRDYNPISSSICHLTNESDGHTTSLYGIGFGPFIITNKHLFRRNNGTLVVQSLHGVFKVKDTTTLQQHLVDGRDMIIIRMPKDFPPFPQKLKFREPQREERICLVTTNFQTKSMSSMVSDTSCTFPSGDGIFWKHWIQTNDGQCGSPLVSTRDGFIVGIHSASNFTNTNNYFTSVPKNFMELLTNQEAQQWVSGWRLNADSVLWGGHKVFMVKPEEPFQPVKEATQL [K148N] | 0.0808 | 0.0826 | – | – | 0.0654 | 0.0728 | – | 0.0157 | – | 0.0834 | 0.0639 | 0.0553 | 0.0399 | 0.0797 | 0.0617 | 0.0589 | 0.05 | 0.0631 | 0.0539 | 0.0555
MGESLFKGPRDYNPISSSICHLTNESDGHTTSLYGIGFGPFIITNKHLFRRNNGTLVVQSLHGVFKVKDTTTLQQHLVDGRDMIIIRMPKDFPPFPQKLKFREPQREERICLVTTNFQTKSMSSMVSDTSCTFESGDGIFWKHWIQTKDGQCGSPLVSTRDGFIVGIHSASNFTNTNNYFTSVPKNFMELLTNQEAQQWVSGWRLNADSVLWGGHKVFMVKPEEPFQPVKEATQL [P134E] | 0.0904 | 0.106 | – | 0.0673 | 0.072 | – | 0.0993 | 0.0609 | 0.0817 | – | 0.0735 | 0.067 | 0.0616 | 0.102 | – | 0.0613 | 0.061 | – | 0.0569 | 0.0575
MGESLFKGPRDYNPISSSICHLTNESDGHTTSLYGIGFGPFIITNKHLFRRNNGTLVVQSLHGVFFVKDTTTLQQHLVDGRDMIIIRMPKDFPPFPQKLKFREPQREERICLVTTNFQTKSMSSMVSDTSCTFPSGDGIFWKHWIQTKDGQCGSPLVSTRDGFIVGIHSASNFTNTNNYFTSVPKNFMELLTNQEAQQWVSGWRLNADSVLWGGHKVFMVKPEEPFQPVKEATQL [K66F] | 0.0919 | 0.143 | 0.0685 | – | – | 0.111 | 0.0506 | 0.0459 | – | 0.0601 | 0.0615 | 0.0747 | 0.0633 | 0.107 | 0.0596 | 0.0437 | 0.0587 | – | 0.0736 | –
MGESLFKGPRDYNPISSSICHLTNESDGHTTSLYGIGFGPFIITNKHLFRRNNGTLVVQSLHGVFKVKDTTTLQQHLVDGRDMIIIRMPKDFPPFPQKLKFREPQREERICLVTTNFQTKSMSSMVSDTSCTFPSGDGIFWKHWIQTKDGQCGSPLVSTRDGFIVGIHSASNFTNTNNYFTSVPKNFMELLTNQEAQQWVSGWRLNADSVLWGGHKVFMVKPEETFQPVKEATQL [P225T] | 0.101 | 0.11 | – | – | – | 0.11 | 0.0564 | 0.048 | 0.0678 | 0.0586 | – | – | 0.0674 | 0.103 | 0.0618 | 0.0719 | 0.0603 | 0.0742 | 0.0478 | 0.0625

Reference: the supplement of paper PMC12217912
